# Laboratory results published in PubChem BioAssay AID886 (National Center for Advancing Translational Sciences (NCATS), 2007).
# About 2,500 (3.4%) of roughly 73,000 compounds were called active. This list was built around the results that the source calls inconclusive (neither active nor inactive); the mix of calls is not that of the screen. The call rests on the fitted dose curve; in most records, active means well fitted inhibition curve with a large enough effect; inconclusive means small, poorly fitted or top-dose-only effect; inactive means no such curve, though single readings can be large or run the other way. Potencies beside an inconclusive call are fits to weak or partial responses and may not hold up.
# Molecular target: 3-hydroxyacyl-CoA dehydrogenase type-2 (Homo sapiens) (UniProt Q99714)
# Sequence of UniProt Q99714 (Q99714 whole entry, looked up): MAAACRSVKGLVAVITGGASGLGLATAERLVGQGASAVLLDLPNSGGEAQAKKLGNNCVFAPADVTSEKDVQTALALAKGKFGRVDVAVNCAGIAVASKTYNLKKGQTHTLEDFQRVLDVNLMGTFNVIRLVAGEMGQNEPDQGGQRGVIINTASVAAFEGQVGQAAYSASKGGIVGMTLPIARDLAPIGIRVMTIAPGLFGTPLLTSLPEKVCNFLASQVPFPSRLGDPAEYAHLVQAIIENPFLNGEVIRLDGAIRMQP
# Sequence of UniProt Q99714 (Q99714 whole entry, looked up): as above
# Test: qHTS Assay for Inhibitors of HADH2 (Hydroxyacyl-Coenzyme A Dehydrogenase, Type II); further: nearly all actives have a fitted effect of over 60% in size
# Settings: recombinant HADH2, NADH fluorescence, beta-hydroxybutyryl-CoA; activity change, negative = inhibition: at 57.1 µM (top of the series)
# Outline: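 20 nM HADH2 + cpd, 15 min RT; add 1 mM NAD+/90 uM beta-hydroxybutyryl-CoA; kinetic fluorescence 360/450 nm, 4 min. Tris-HCl pH 9.0, 0.01% Tween-20.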
# On the % scale 0 is the no-effect control and ±100 the full control effect; potency means the concentration at half of the fitted maximal effect; tags describe the fitted curve by direction and shape.
Compound,Potency,"activity change, negative = inhibition"
O=C(O)CCCC[C@H]1CCSS1,"inconclusive: 12.6 µM [inhibitor, partial curve]",–
NC(=O)c1c(NC(NC(=O)c2ccco2)(C(F)(F)F)C(F)(F)F)sc2c1CCCC2,"inconclusive: 20 µM [inhibitor, partial curve]",–
CCSc1nnc(C)n1-c1ccc(C(=O)O)cc1,"inconclusive: 25.1 µM [inhibitor, single point]",–
CC(=O)c1c(C(C)=O)c(C)n(NC(=O)c2cccnc2)c1C,–,inactive: -3.6%
CCCCn1c(S(=O)(=O)O)nc2ccccc21,–,inactive: -18%
COCc1c(C(N)=O)nnn1-c1nonc1N,–,inactive: 0.744%
CCOC(=O)c1cc(-c2ccco2)nc2c1c(C)nn2-c1ccccc1,"inconclusive: 31.6 µM [inhibitor, single point]",–
C=CCc1cc(/C=N/n2cnnc2)cc(OCC)c1O,"inconclusive: 25.1 µM [inhibitor, single point]",–
COc1ccc(Cc2c(O)nc(SC)n(C(C)=O)c2=O)cc1,"inconclusive: 15.8 µM [inhibitor, partial curve]",–
CC(C)(C)OC(=O)N1CCC[C@H]1c1nnc(SCc2ccccc2Cl)o1,–,inactive: 5.42%
Cc1nnc(SC(=O)N2c3ccccc3Sc3ccccc32)s1,active: 1.58 µM,–
Cc1sc2nc(SCC(=O)Nc3c(C)n(C)n(-c4ccccc4)c3=O)n(C)c(=O)c2c1C,"inconclusive: 31.6 µM [inhibitor, single point]",–
Cc1cc(C)n(CCc2nc(-c3cccs3)cs2)n1,"inconclusive: 12.6 µM [inhibitor, partial curve, poor fit]",–
COc1cccc(C2CC(=O)N3CN(c4ccccc4F)CSC3=C2C#N)c1 (stereo not drawn),active: 1.26 µM,–
COCCCNC(=O)c1cc(C)nc2ccc(F)cc12,"inconclusive: 2.51 µM [inhibitor, partial curve]",–
CC(=O)c1c(C)n([O-])c2cc(C)ccc2[n+]1=O,"inconclusive: 39.8 µM [inhibitor, single point]",–
O=C(CSCc1nc2ccccc2[nH]1)N1CCN(c2cccc(Cl)c2)CC1,–,inactive: -9.28%
Cc1nnc(NC(=O)CSc2nc3c(c(=O)n2CCc2ccccc2)SC(C)C3)s1 (stereo not drawn),–,inactive: -18.5%
O=c1c(CCc2ccccc2)nc2cncnc2n1Cc1ccccc1Cl,–,inactive: 3.61%
COC(=O)n1c(=S)oc2cc(Cl)ccc21,active: 7.94 µM,–
O=C(O)Cn1nc(-c2ccccc2)c2ccccc21,"inconclusive: 12.6 µM [inhibitor, partial curve]",–
CCNC(=O)N1c2ccc(OC)cc2C(C)=CC1(C)C,"inconclusive: 3.98 µM [inhibitor, single point]",–
COc1nc(Nc2ccc(-c3nc4ccccc4o3)cc2)nc(N2CCOCC2)n1,active: 31.6 µM,–
CC1CCN(c2nc3c(c(=O)n(C)c(=O)n3C)n2CCSc2ncccn2)CC1,"inconclusive: 31.6 µM [inhibitor, single point]",–
CCc1[nH]c(C)c(C(C)=O)c1C,"inconclusive: 25.1 µM [inhibitor, single point]",–
CCC(C)NC(=O)CSC1=Nc2ccccc2C2=NC(CC(=O)NCc3ccc(F)cc3)C(=O)N12 (stereo not drawn),active: 20 µM,–

Compound,Potency,"activity change, negative = inhibition"
CCn1cc(C(=O)Nc2ccc3c(c2)OCCO3)c2cc(OC)c(OC)cc2c1=O,–,inactive: 0.601%
Cc1cc(C)c(C#N)c(SCC(=O)CC(=O)OC(C)C)n1,"inconclusive: 25.1 µM [inhibitor, single point]",–
CCn1c(O)c(/C=N/n2cnnc2)sc1=S,"inconclusive: 31.6 µM [inhibitor, single point]",–
CCCCc1cc(=O)oc2c(CN3CCCC3)c(O)c(Cl)cc12,active: 1 µM,–
O=C(Nc1sc2c(c1C(=O)O)CCCC2)c1cccs1,"inconclusive: 31.6 µM [inhibitor, single point]",–
CCC(C)Nc1ccc(NC(C)CC)cc1 (stereo not drawn),"inconclusive: 2 µM [inhibitor, full curve, poor fit]",–
COC(=O)C1=CN(C)C=C(C(=O)OC)C1c1ccccc1Cl,active: 31.6 µM,–
CC(=O)N1CSCC1C(=O)O (stereo not drawn),"inconclusive: 20 µM [inhibitor, single point]",–
O=C1c2ccccc2N2C(=O)c3ccccc3C2N1Cc1ccco1 (stereo not drawn),"inconclusive: 2.51 µM [inhibitor, partial curve, poor fit]",–
COCCNc1c(-c2ccc(O)cc2)nc2ccc(Cl)cn12,active: 31.6 µM,–
[N-]=[N+]=Nc1ccc(C(=O)CSC[C@@H](NC(=O)CC[C@@H](N)C(=O)O)C(=O)NCC(=O)O)cc1,"inconclusive: 31.6 µM [inhibitor, single point]",–
O=C(O)CCc1ccc(-c2ccccc2)n1-c1cccc(O)c1,"inconclusive: 31.6 µM [inhibitor, single point]",–
CC1(C)CC(=O)C(C2(O)C(=O)N(Cc3ccccc3)c3ccccc32)CO1 (stereo not drawn),"inconclusive: 12.6 µM [inhibitor, partial curve]",–
c1cncc(CNc2ncncc2-c2ccc3c(c2)OCO3)c1,active: 10 µM,–
CN1CCN(c2cc(-c3ccc(N(C)C)cc3)ncn2)CC1,"inconclusive: 31.6 µM [inhibitor, single point]",–
N#C/C(=C1\CCCN1)c1nc(-c2ccccc2)cs1,"inconclusive: 39.8 µM [inhibitor, single point]",–
Cc1ccc2nc(Nc3nc(=O)c4ccccc4n3C)nc(C)c2c1,–,inactive: 24.3%
CCN(CC)CCN(Cc1cc2cc3c(cc2[nH]c1=O)OCCO3)C(=O)NC1CCCCC1,"inconclusive: 39.8 µM [inhibitor, single point]",–
Cc1cc(C)n(-c2cc(-c3ccccc3)nc(C)n2)n1,"inconclusive: 7.94 µM [inhibitor, single point]",–
CCOC(=O)CCCCC(=O)c1[nH]c(=O)[nH]c1CSc1nc(-c2ccccc2)c(C#N)c(=O)[nH]1,active: 25.1 µM,–
CC(=O)NCCNc1ccnc(-c2ccccc2C)n1,–,inactive: -27.8%
CCCCOC(=O)n1c(=O)oc2cc(S(=O)(=O)N3CCCCC3)ccc21,–,inactive: -5.12%
CC(C)N(C(=O)Nc1ccc2nccnc2c1)C(C)C,"inconclusive: 15.8 µM [inhibitor, partial curve]",–
O=S(=O)(Nc1ccc(S(=O)(=O)N2CCOCC2)cc1)c1ccccc1,"inconclusive: 3.16 µM [inhibitor, single point]",–
CC(C)OCCCNC(=O)Cn1nc(-c2ccccc2)ccc1=O,–,inactive: 5.33%
CCOC(=O)C1CCCN(c2nc3ccccc3nc2C(C#N)C(=O)OCC)C1 (stereo not drawn),–,inactive: 3%

Compound,Potency,"activity change, negative = inhibition"
O=C(NCc1ccco1)c1cccs1,"inconclusive: 31.6 µM [inhibitor, single point]",–
Cc1cccn2c(=O)c3cc(C(=O)N4COCC4(C)C)n(C)c3nc12,active: 25.1 µM,–
COCCn1c(=O)[nH]c2cc(C(=O)NCc3cccnc3)ccc2c1=O,"inconclusive: 25.1 µM [inhibitor, single point]",–
Cc1noc(C)c1-c1cc(NC2CC2)ncn1,active: 25.1 µM,–
O=C(CCCCn1c(=S)[nH]c2ccsc2c1=O)NCc1ccco1,"inconclusive: 12.6 µM [inhibitor, partial curve]",–
Nc1nc(NC(=O)c2ccco2)nn1-c1ccccc1,–,inactive: -4.28% [at 11.4 µM]
Nc1nc(-c2cccs2)cs1,active: 1.26 µM,–
CCOP(=O)(CC(C(C)=O)C(O)c1ccccc1)OCC (stereo not drawn),–,inactive: 1.98% [at 11.4 µM]
CCO/C(C)=N/n1c2nc3ccccc3nc2c2c(=O)n(C3CCCC3)c(C)nc21,"inconclusive: 20 µM [inhibitor, single point]",–
CN1CCN(c2ccncc2S(=O)(=O)N2CCN(C)CC2)CC1,–,inactive: 1.3% [at 11.4 µM]
CCN(CC)CCCn1c(-c2ccccc2)nc2c(N(CCOC)CCOC)nc(C)nc21,"inconclusive: 39.8 µM [inhibitor, single point]",–
CN(CCc1ccccn1)Cc1ccc(Cl)cc1,–,inactive: -0.191%
CC(C)c1nc2oc3c(NCc4cccnc4)ncnc3c2c2c1CCC2,active: 25.1 µM,–
COC(=O)c1ccc(C(=O)OC)c(NC(=O)COC(=O)C23CC4CC(CC(O)(C4)C2)C3)c1,–,inactive: 1.85%
COc1ccccc1-c1nc(C#N)c(N2CCN(C(c3ccccc3)c3ccccc3)CC2)o1,active: 25.1 µM,–
C[C@@](Cc1ccc(O)c(O)c1)(NN)C(=O)O,active: 0.158 µM,–
Cc1ccc(C)c(NC(=O)c2ccccc2O)c1,–,inactive: -12.1%
C#CCSc1nsc(SCC#C)c1C#N,"inconclusive: 31.6 µM [inhibitor, single point]",–
C=CCN=C(NC#N)SCC(=O)NCc1ccccc1,"inconclusive: 31.6 µM [inhibitor, single point]",–
O=C1SC(SCc2ccccc2)=N/C1=C\c1ccco1,"inconclusive: 20 µM [inhibitor, partial curve]",–
CC(C)(C)c1ccc(O)c(O)c1,active: 0.251 µM,–
O=C(CSc1nnc(C2COc3ccccc3O2)o1)N1CCCc2ccccc21 (stereo not drawn),"inconclusive: 39.8 µM [inhibitor, single point]",–
CCN1CCN(Cc2c(O)ccc3c(=O)c(-c4ccc(OC)c(OC)c4)c(C(F)(F)F)oc23)CC1,"inconclusive: 1.58 µM [inhibitor, single point]",–
COC(=O)C1=C(C)N(C2CCCC2)C(=O)C1(NC(C)=O)C(F)(F)F (stereo not drawn),"inconclusive: 25.1 µM [inhibitor, single point]",–
COc1ccccc1-c1nc(NC2CC2)c2ccccc2n1,"inconclusive: 20 µM [inhibitor, partial curve]",–
CC(C)n1c(Nc2ccccc2)nc2ccccc21,"inconclusive: 15.8 µM [inhibitor, partial curve]",–
